# Laboratory results reported in publication PMC4336329 (PLoS ONE, 2015).
# Hit rate of the full screen: of about 310,000 compounds, about 14,000 (4.5%) showed an effect of 50% or more. Effects have a minus sign here. The list shows a part of the results.
# Target: human ether-à-go-go-related gene (hERG) potassium channel (human, UniProt Q12809)
# Assay: primary screen, population patch clamp on CHO cells stably expressing hERG
# 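Note: peak tail current of the secondary pulse compared with the same well before compound.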
# Sequence of human ether-à-go-go-related gene (hERG) potassium channel (Q12809 whole entry, looked up): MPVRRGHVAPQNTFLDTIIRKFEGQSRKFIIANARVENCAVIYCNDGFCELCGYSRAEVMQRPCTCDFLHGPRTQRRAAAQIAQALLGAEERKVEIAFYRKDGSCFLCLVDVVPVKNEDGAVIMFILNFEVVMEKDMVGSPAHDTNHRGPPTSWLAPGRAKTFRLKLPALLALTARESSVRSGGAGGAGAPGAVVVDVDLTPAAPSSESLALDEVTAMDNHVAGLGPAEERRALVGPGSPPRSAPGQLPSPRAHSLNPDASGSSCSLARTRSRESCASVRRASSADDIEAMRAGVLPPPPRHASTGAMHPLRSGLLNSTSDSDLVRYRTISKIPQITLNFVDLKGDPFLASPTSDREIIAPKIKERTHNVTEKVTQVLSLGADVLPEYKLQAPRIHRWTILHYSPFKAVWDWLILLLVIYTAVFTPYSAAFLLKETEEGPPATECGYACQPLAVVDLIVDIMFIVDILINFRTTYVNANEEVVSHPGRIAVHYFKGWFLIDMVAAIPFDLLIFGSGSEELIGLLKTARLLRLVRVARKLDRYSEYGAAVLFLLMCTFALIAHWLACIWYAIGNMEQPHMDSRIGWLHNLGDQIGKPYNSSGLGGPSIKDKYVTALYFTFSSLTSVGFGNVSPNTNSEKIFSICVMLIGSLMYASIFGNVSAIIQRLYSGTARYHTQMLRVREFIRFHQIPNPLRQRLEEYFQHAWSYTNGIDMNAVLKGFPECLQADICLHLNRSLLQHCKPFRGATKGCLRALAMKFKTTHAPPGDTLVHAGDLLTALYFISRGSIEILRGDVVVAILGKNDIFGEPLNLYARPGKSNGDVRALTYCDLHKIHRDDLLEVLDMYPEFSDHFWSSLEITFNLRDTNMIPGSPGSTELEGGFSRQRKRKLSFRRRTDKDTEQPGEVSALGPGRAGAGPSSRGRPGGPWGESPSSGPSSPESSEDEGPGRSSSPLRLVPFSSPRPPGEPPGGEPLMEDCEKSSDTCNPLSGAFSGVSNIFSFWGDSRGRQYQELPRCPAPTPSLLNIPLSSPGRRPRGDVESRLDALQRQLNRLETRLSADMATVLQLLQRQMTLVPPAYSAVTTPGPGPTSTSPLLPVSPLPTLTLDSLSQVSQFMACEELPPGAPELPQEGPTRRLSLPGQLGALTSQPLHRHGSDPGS
row,SMILES,"hERG current change (%, negative = inhibition) at 10uM"
1,O=C(COC(=O)Cc1n[nH]c(=O)c2ccccc12)NNC(=O)c1ccc(Cl)cc1,-40.2%
2,CCCCn1c2ccc(F)cc2c2nnc(NN)nc21,-44.9%
3,COc1ccc(CCCc2nnc(SCc3nc4ccccc4c(=O)[nH]3)n2C)cc1,-27.4%
4,COc1ccc(-n2nc(C(=O)NCC(=O)N3CCN(c4ccccn4)CC3)c3ccccc3c2=O)c(OC)c1,5.6%
5,O=C(Nc1ccccc1F)c1cc(Cl)sc1Cl,14.7%
6,O=c1oc(-c2ccccc2NS(=O)(=O)c2ccc3ccccc3c2)nc2ccccc12,22.9%
7,O=C(Nc1ccc(-c2cn3ccsc3n2)cc1)C1COc2ccccc2O1 (stereo not drawn),10.8%
8,COc1ccccc1-c1c(C)nn2c(C)cc(C)nc12,-11.4%
9,C/C(=C\C(=O)c1ccc(Cl)cc1)Nc1ccc(Br)cc1,7.21%
10,COc1ccccc1NC(=O)C1=C(C)Nc2nnnn2C1c1cc(Br)ccc1OC (stereo not drawn),-0.22%
11,O=C1CC(c2ccccc2)CC(O)=C1C=NCc1ccncc1 (stereo not drawn),-22.3%
12,C/C(=N\NC(=O)c1csc(C)c1C)c1ccc(C)s1,-6.2%
13,CC1(C)C2([N+](=O)[O-])CN3CC1([N+](=O)[O-])CN(C2)C3C(O)C(O)C(O)CO (stereo not drawn),29%
14,O=C(NC1(Cc2ccccc2)CCN(CCCc2ccccc2)C1=O)c1ccccc1 (stereo not drawn),-10.5%
15,CC1=NN(c2ccccc2)C(=O)/C1=C/c1c(O)[nH]c(=O)[nH]c1=O,7.84%
16,Cn1c(NN=O)nc2ccccc21,15.7%
17,COCCN1C(=O)c2cc(C(=O)Nc3ccc(C)c(F)c3)ccc2C1Nc1ccc(C)c(F)c1 (stereo not drawn),1.29%
18,O=Nc1c2ccc[nH]c-2c2ccc([N+](=O)[O-])cc12,23.2%
19,COc1ccc(/C=N/NC(=O)c2ccc(NC(=O)C3CCCCC3)cc2)cc1O,24.3%

row,SMILES,"hERG current change (%, negative = inhibition) at 10uM"
1,NC(=O)C1CCN(C2=C(NS(=O)(=O)c3ccccc3)C(=O)c3ccccc3C2=O)CC1,-13.9%
2,N/C(=N\c1nc2c(c(=O)[nH]1)CCCC2)Nc1ccccc1Sc1ccccc1,2%
3,Cc1oc2ccc(Br)cc2c(=O)c1-c1nn[nH]n1,3.71%
4,Cc1cccc(C)c1NC(=O)c1c[nH]c2ccccc12,6.37%
5,O=C1CC(N2CCN(c3ccc(F)cc3)CC2)C(=O)N1Cc1cccs1 (stereo not drawn),-42.5%
6,COc1ccc(/C=C/c2nc(-c3ccccc3O)n(-c3ccccc3)n2)cc1,-2.17%
7,CC(=O)NCCC(=O)Nc1cc(F)ccc1C,2.94%
8,Cc1nnc(SCC(=O)NNC(=O)COc2ccc(Cl)cc2)n1C,9.95%
9,Cc1noc(NC(=O)c2ccc(F)cc2)c1C#N,20.9%
10,CC(=O)N1CCOc2ccc(S(=O)(=O)N3CCC(C(=O)Nc4ccc(C)c(C)c4)CC3)cc21,-6.48%
11,CCOc1cc(C2c3c(oc4cc(C)c(Cl)cc4c3=O)C(=O)N2Cc2ccco2)ccc1O (stereo not drawn),18.1%
12,O=C(Cn1cc2c(n1)CCCC2)NCc1cccs1,2.94%
13,CC(C)c1cc(C(=O)Nc2cccnc2)no1,-5.93%
14,O=[N+]([O-])c1ccc(N2CCCC(C(F)(F)F)C2)c2ccncc12 (stereo not drawn),-24%
15,Cc1cc(-c2nnc(CCC(=O)NCc3cc(F)cc(C(F)(F)F)c3)o2)no1,-1.8%
16,COc1cc(O)c2c(=O)c3c(OC)c(O)ccc3oc2c1,3.58%
17,CN(Cc1ccc(Cl)cc1)C(=O)CCl,33.9%
18,COC(=O)c1sc(NC(=O)c2cccc([N+](=O)[O-])c2)c(C(N)=O)c1C,-3.53%
19,C[n+]1c(-c2ccccc2)sc([S-])c1-c1ccccc1,-1.55%

row,SMILES,"hERG current change (%, negative = inhibition) at 10uM"
1,COc1cccc(/C=C/C(=O)OCC(=O)NCC2CCCCC2)c1OC,8.32%
2,C/C(=N\NC(=O)Cn1c(-c2ccccn2)nc2ccccc21)c1cccc(O)c1,22.7%
3,Clc1ccc(-n2ncc3c(NCc4cccs4)ncnc32)cc1,-1.42%
4,C#CCSc1nnc(-c2sc3ccccc3c2Cl)o1,13.1%
5,Cc1ccc(OCc2nc(-c3ccccc3)no2)cc1,13.3%
6,CN(C)S(=O)(=O)c1cccc(COC(=O)c2ccc3c(c2)OCO3)c1,4.97%
7,O=C(CNC(=O)c1cccs1)NC1=NCCS1,4.08%
8,Cc1cc(C(=O)NCc2cccs2)c(C)o1,-4.28%
9,O=C(NCc1ccco1)c1cccn2c(=O)c3c4c(sc3nc12)CCCC4,13.6%
10,COc1ccc(OC)c(Nc2nc(-c3sc(N)nc3C)cs2)c1,-0.856%
11,Cc1ccc(C)c(NC(=O)CN(C)C(=O)[C@@H](NC(=O)c2ccc(C(C)(C)C)cc2)C(C)C)c1,-16.5%
12,CCC(C)C(NC(=O)C1CCC(=O)N1C(=O)OCc1ccccc1)C(=O)NC(Cc1ccccc1)C(N)=O (stereo not drawn),-18.2%
13,CC(=O)C1(C)OC(N)=C(C#N)C(c2ccccc2)C1(C#N)C#N (stereo not drawn),-0.619%
14,CN(c1ccccc1)S(=O)(=O)c1ccc(C(=O)Nc2nccs2)cc1,9.93%
15,CC(C)C(OC(=O)c1cccs1)C(=O)NCc1cccs1 (stereo not drawn),3.25%
16,NC(=O)C1(C(N)=O)OC1c1ccc(Cl)cc1Cl (stereo not drawn),9.23%
17,Cc1ccc(C)c(NC(=O)CSc2nnc(-c3ccccc3)n2N)c1,-6.88%
18,Cc1ccc(CS(=O)Cc2ccc(C(=O)NCc3cccs3)o2)cc1 (stereo not drawn),1.68%
19,O=C(NCCc1ccc(F)cc1)Nc1ccc2c(c1)OCO2,9.4%
